{"source": "paper PMC2362091", "about": "“Expression of V1A and GRP receptors leads to cellular transformation and increased sensitivity to substance-P analogue-induced growth inhibition” (British Journal of Cancer, 2005)", "biological_target": "GRP (Homo sapiens), P07492", "sequence (P07492 24-50)": "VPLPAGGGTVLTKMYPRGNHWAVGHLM", "experiment": "competition"}
{"binder": "GRP receptor, P30550 (protein) MALNDCFLLNLEVDHFMHCNISSHSADLPVNDDWSHPGILYVIPAVYGVIILIGLIGNITLIKIFCTVKSMRNVPNLFISSLALGDLLLLITCAPVDASRYLADRWLFGRIGCKLIPFIQLTSVGVSVFTLTALSADRYKAIVRPMDIQASHALMKICLKAAFIWIISMLLAIPEAVFSDLHPFHEESTNQTFISCAPYPHSNELHPKIHSMASFLVFYVIPLSIISVYYYFIAKNLIQSAYNLPVEGNIHVKKQIESRKRLAKTVLVFVGLFAFCWLPNHVIYLYRSYHYSEVDTSMLHFVTSICARLLAFTNSCVNPFALYLLSKSFRKQFNTQLLCCQPGLIIRSHSTGRSTTCMTSLKSTNPSVATFSLINGNICHERYV", "values": [{"measurement": "Kd", "result": 2.55, "unit": "nM"}]}
